Data taken from the supplement of paper PMC4723716.
± gives the uncertainty stated by the source. In all, about 9,900 compounds were measured (“viability index relative to DMSO control”: median about 1, lowest 2% from about 0.85 on). The list shows a part of the results.

tested on: Plasmodium falciparum NF54 stage V gametocytes; assay: viability index relative to DMSO control (fraction); higher = less gametocyte killing; conditions: 2.5 µM, library set: Broad Institute DOS, incubation time: 72 h
Procedure, shortened: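 In 1,536-well plates, 10 µl of serum-free medium holding P. falciparum NF54 stage V gametocytes (0.75% gametocytemia, 1.25% hematocrit) received compound at 2.5 µM for 72 hr at 37°C in low oxygen. After one to two hours with 3 µl of 2.5 µM MitoTracker Red CMXRos containing 0.13% saponin, red particles of 20–70 µm2 were counted in a single field per well. Viability index is reported as the particle count over the plate mean of wells treated with solvent only.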

`N#C[C@H]1[C@H](c2ccccc2)[C@H](CO)N1S(=O)(=O)c1cccc(F)c1` and `CCC(=O)N1[C@H](CO)[C@@H](c2ccccc2-c2ccccc2)[C@@H]1C#N` are within error of each other in viability index: 1.1 ± 0.012 for the first, 1.08 ± 0.15 for the second.

`O=C(c1cccc(F)c1)N1CC2(C1)[C@H](c1ccccc1)[C@H](CO)N2C(=O)C1CCCCC1` and `N#C[C@@H]1[C@H](c2ccccc2C2=CCCC2)[C@@H](CO)N1C(=O)c1cccc(F)c1` are within error of each other in viability index: 1.13 ± 0.084 for the first, 1.03 ± 0.075 for the second.

`O=C(C[C@@H]1CC[C@H]2NC[C@H](O)COC[C@@H]2O1)NCc1ccc2c(c1)OCO2` and `O=C(C[C@@H]1CC[C@@H]2[C@H](COC[C@@H](O)CN2Cc2cccc(Cl)c2)O1)NCc1cccc(F)c1` are within error of each other in viability index: 1.12 ± 0.012 for the first, 1.06 ± 0.094 for the second.

`C[C@@H]1CN([C@H](C)CO)S(=O)(=O)c2ccc(C#Cc3cccc(F)c3)cc2O[C@@H]1CN(C)S(=O)(=O)c1cn(C)cn1` and `C[C@H]1CN([C@@H](C)CO)C(=O)CCCn2cc(nn2)CO[C@H]1CN(C)S(=O)(=O)c1cccc(C#N)c1` are within error of each other in viability index: 1.01 ± 0.055 for the first, 1.08 ± 0.1 for the second.

`CCCNC(=O)N1C[C@]2(CCN(CC2)C(=O)Nc2cccc(F)c2)c2c([C@H]1CO)n(C)c1cc(OC)ccc21` and `COc1ccc2c3c([nH]c2c1)[C@H](CO)N(Cc1ccccc1OC)C[C@]31CCN(CC1)S(=O)(=O)c1ccccc1` are within error of each other in viability index: 0.991 ± 0.079 for the first, 1.06 ± 0.021 for the second.

`COCC(=O)Nc1ccc2c(c1)OC[C@@H](C)N(C)C[C@H](C)[C@H](OC)CN(C)C2=O` and `COCC(=O)Nc1ccc2c(c1)C(=O)N(C)C[C@@H](OC)[C@H](C)CN(C(=O)c1ccncc1)[C@H](C)CO2` are within error of each other in viability index: 1.03 ± 0.12 for the first, 1.06 ± 0.034 for the second.

`COc1ccccc1C(=O)Nc1ccc2c(c1)C(=O)N(C)C[C@H](OC)[C@H](C)CN(C(C)=O)[C@@H](C)CO2` and `CO[C@H]1CN(C)C(=O)c2cc(NC(=O)c3ccccc3F)ccc2OC[C@H](C)N(CC2CCOCC2)C[C@H]1C` are within error of each other in viability index: 1.08 ± 0.099 for the first, 1 ± 0.11 for the second.

`C/C=C/c1ccc([C@@H]2[C@H]3CN(C(=O)Nc4cccc(OC)c4)CC(=O)N3[C@H]2CO)cc1` and `C/C=C/c1ccc([C@H]2[C@H](CO)N3C(=O)CN(C(=O)c4ccncc4)C[C@@H]23)cc1` are within error of each other in viability index: 1.03 ± 0.09 for the first, 1.06 ± 0.017 for the second.

`O=C(CN1CCOCC1)N[C@H]1CC[C@H](CCn2cc(C3CC3)nn2)O[C@H]1CO` and `O=C(C[C@H]1CC[C@@H]2[C@H](COC[C@@H](O)CN2S(=O)(=O)c2cccc(Cl)c2)O1)N1CCOCC1` are within error of each other in viability index: 1.18 ± 0.14 for the first, 1.05 ± 0.082 for the second.

Going from `C[C@@H]1C/C=C/C[C@@H](c2cccc(Cl)c2)NC(=O)[C@H](Cc2ccccc2)N(C)C(=O)c2ccccc2O1.C[C@@H]1C/C=C\C[C@@H](c2cccc(Cl)c2)NC(=O)[C@H](Cc2ccccc2)N(C)C(=O)c2ccccc2O1` to `COc1ccc([C@@H]2C/C=C\C[C@@H](c3ccc4c(c3)OCO4)NC(=O)[C@@H](c3ccccc3)CC(=O)N2)c(OC)c1`, the viability index rises from 0.94 ± 0.029 to 1 ± 0.021.

Compared with `CCCC#Cc1ccc([C@@H]2[C@H]3CN(C(=O)c4cccnc4)CC(=O)N3[C@H]2CO)cc1`, `O=C(Cc1ccccn1)N1CC(=O)N2[C@@H](CO)[C@@H](c3ccc(C#CCC4CCCC4)cc3)[C@@H]2C1` is higher in viability index: 1.03 ± 0.029 for the first, 1.12 ± 0.025 for the second.

Compared with `CO[C@H]1CC[C@H]2CCN(C)C(=O)CCCN(C)C(=O)c3cc(C#N)ccc3OC[C@H]1O2`, `CN1CCN(C(=O)C[C@H]2CC[C@H]3[C@@H](COc4ccc(NC(=O)c5cccs5)cc4C(=O)N3C)O2)CC1` is higher in viability index: 0.96 ± 0.015 for the first, 1.05 ± 0.048 for the second.

`CN1C(=O)c2cc(NC(=O)c3cscn3)ccc2OC[C@@H]2O[C@H](CC(=O)N3CCOCC3)CC[C@@H]21` and `COc1ccccc1NC(=O)N1C[C@H](O)COC[C@H]2O[C@H](CC(=O)N3CCC(Cc4ccccc4)CC3)CC[C@@H]21` are within error of each other in viability index: 1.03 ± 0.016 for the first, 1.11 ± 0.14 for the second.

Going from `Cc1ccc(OC(=O)N(C)C[C@@H]2OCc3ccccc3-c3ccccc3C(=O)N([C@H](C)CO)C[C@@H]2C)cc1` to `C[C@H]1CN([C@@H](C)CO)C(=O)c2ccccc2-c2ccccc2CO[C@H]1CN(C)Cc1ccccc1C(F)(F)F`, the viability index falls from 0.993 ± 0.036 to 0.726 ± 0.14.

`CO[C@H]1CN(C)C(=O)c2cc(NC(C)=O)ccc2OC[C@H](C)N(Cc2ccncc2)C[C@H]1C` and `COc1cccc(NC(=O)Nc2ccc3c(c2)C(=O)N(C)C[C@@H](OC)[C@H](C)CN(CC2CC2)[C@@H](C)CO3)c1` are within error of each other in viability index: 0.988 ± 0.093 for the first, 1.046 ± 0.0025 for the second.

`Cc1ccc(S(=O)(=O)Nc2ccc3c(c2)C(=O)N([C@@H](C)CO)C[C@@H](C)[C@H](CN(C)Cc2ccc(C(F)(F)F)cc2)O3)cc1` and `C[C@@H]1CN([C@H](C)CO)C(=O)c2cccc(NC(=O)NC3CCCCC3)c2O[C@@H]1CN(C)Cc1ccc(C(F)(F)F)cc1` are within error of each other in viability index: 1.03 ± 0.14 for the first, 0.977 ± 0.071 for the second.

`N#C[C@@H]1N[C@H](CO)[C@H]1c1ccc(C#CC2CCCCC2)cc1` and `N#C[C@H]1N[C@H](CO)[C@H]1c1ccc(C#CC2CCCCC2)cc1` are within error of each other in viability index: 1.14 ± 0.016 for the first, 1.17 ± 0.033 for the second.

`CO[C@@H](CN(C)C(=O)c1ccccc1F)[C@H](C)CN([C@H](C)CO)S(=O)(=O)c1ccc(F)cc1` and `CC(C)CC#Cc1ccc([C@@H]2[C@@H](CO)N3C(=O)CN(C(=O)Nc4cc(F)ccc4F)C[C@@H]23)cc1` are within error of each other in viability index: 0.955 ± 0.12 for the first, 1.03 ± 0.033 for the second.

`O=S(=O)(c1cccc(Cl)c1)N1[C@@H]2CNC[C@H]1[C@H]2c1ccc(-c2cccnc2)cc1` and `Cc1ccccc1-c1ccc([C@H]2[C@@H](CO)N3C(=O)CN(C(=O)Nc4cccc(F)c4)C[C@@H]23)cc1` are within error of each other in viability index: 1.05 ± 0.029 for the first, 1 ± 0.032 for the second.

`O=C(Cc1ccccc1)N1CC[C@H]2[C@H](CO)Nc3ccc(C4=CCCCC4)cc3[C@H]21` and `N#C[C@@H]1[C@@H](c2ccccc2-c2ccccc2F)[C@@H](CO)N1C(=O)Cc1ccccc1` are within error of each other in viability index: 1.12 ± 0.039 for the first, 1.07 ± 0.16 for the second.

`CS(=O)(=O)N1CC(=O)N2[C@@H](CO)[C@@H](c3ccc(Br)cc3)[C@@H]2C1` and `COCC(=O)N1[C@@H]2CN(C)c3ccccc3[C@@H]2[C@@H]1CO` are within error of each other in viability index: 1.01 ± 0.065 for the first, 1.05 ± 0.034 for the second.

`COc1ccc(-c2cccc(-c3nc(C(=O)N(C)C)cc4c3[C@@H](CCO)N([S@](=O)C(C)(C)C)C4)c2)cc1` and `C[C@H](CO)N1C[C@H](C)[C@@H](CN(C)C)OCc2ccccc2-c2c(n(C)c3ccccc23)C1=O` are within error of each other in viability index: 1.01 ± 0.043 for the first, 1.04 ± 0.08 for the second.

`COc1ccccc1-c1ccc([C@@H]2[C@H](C#N)N[C@@H]2CO)cc1` and `C[C@@H]1CN([C@H](C)CO)C(=O)CCCn2cc(nn2)CO[C@H]1CN(C)C(=O)NC1CCCCC1` are within error of each other in viability index: 1.012 ± 0.0071 for the first, 1.05 ± 0.052 for the second.
